Test results taken from the supplement of paper PMC8948288.
Shown are siRNA guide strands that differ only in the seed, positions 2 to 7.

Key:
GL261 = test: cell viability relative to siNT1 (ATP content); H4 human neuroglioma and GL261 mouse glioma; higher = less toxic; settings: siRNA concentration 25 nM; 96 h; mouse
H4 = test: as above; settings: siRNA concentration 10 nM; 96 h; human
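Also: cells reverse transfected with siRNA duplexes via lipid reagent, ATP read by luminescence, triplicate wells, values scaled to mean viability with non-targeting control siNT1.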

Sequence	cell viability (GL261) [%]	cell viability (H4) [%]
UUGGUGUACAUGUAAACCA	30.6	90.6
UUGGUUAACAUGUAAACCA	56	105
UUGGUUCACAUGUAAACCA	86.1	78.1
UUGGUUGACAUGUAAACCA	66.3	113
UUGGUUUACAUGUAAACCA	56.8	108
UUGUAAAACAUGUAAACCA	71.8	69.6
UUGUAACACAUGUAAACCA	51.4	72.9
UUGUAAGACAUGUAAACCA	51.3	96.5
UUGUAAUACAUGUAAACCA	45.8	61.7
UUGUACAACAUGUAAACCA	54.4	94.1
UUGUACCACAUGUAAACCA	32.9	58.9
UUGUACGACAUGUAAACCA	63	101
UUGUACUACAUGUAAACCA	45.8	60.7
UUGUAGAACAUGUAAACCA	35.4	71.9
UUGUAGCACAUGUAAACCA	52.5	47.9
UUGUAGGACAUGUAAACCA	20	45.3
UUGUAGUACAUGUAAACCA	16.9	9.47
UUGUAUAACAUGUAAACCA	55	82.2
UUGUAUCACAUGUAAACCA	34.9	34.7
UUGUAUGACAUGUAAACCA	39	94.9
UUGUAUUACAUGUAAACCA	52.7	49.4
UUGUCAAACAUGUAAACCA	54.5	89.5
UUGUCACACAUGUAAACCA	52.5	36.2
UUGUCAGACAUGUAAACCA	61.3	73.8

Sequence	cell viability (GL261) [%]	cell viability (H4) [%]
UUGUCAUACAUGUAAACCA	39.7	66.6
UUGUCCAACAUGUAAACCA	56.7	70.4
UUGUCCCACAUGUAAACCA	26.7	30.3
UUGUCCGACAUGUAAACCA	33.8	62.3
UUGUCCUACAUGUAAACCA	33.4	56.2
UUGUCGAACAUGUAAACCA	53.1	75.1
UUGUCGCACAUGUAAACCA	37.4	69.8
UUGUCGGACAUGUAAACCA	32.5	47.1
UUGUCGUACAUGUAAACCA	33.7	74
UUGUCUAACAUGUAAACCA	67	71.1
UUGUCUCACAUGUAAACCA	21.6	78.9
UUGUCUGACAUGUAAACCA	60.9	73.7
UUGUCUUACAUGUAAACCA	53.7	72.3
UUGUGAAACAUGUAAACCA	40.3	57.8
UUGUGACACAUGUAAACCA	15.5	42.9
UUGUGAGACAUGUAAACCA	15.9	55.7
UUGUGAUACAUGUAAACCA	32	48.5
UUGUGCAACAUGUAAACCA	27.7	75.8
UUGUGCCACAUGUAAACCA	48.5	69.6
UUGUGCGACAUGUAAACCA	28.7	70.3
UUGUGCUACAUGUAAACCA	28.3	90.3
UUGUGGAACAUGUAAACCA	46.6	49.6
UUGUGGCACAUGUAAACCA	25	47.2
UUGUGGGACAUGUAAACCA	25.7	66.4

Sequence	cell viability (GL261) [%]	cell viability (H4) [%]
UUGUGGUACAUGUAAACCA	26.9	36.2
UUGUGUAACAUGUAAACCA	37.2	89.8
UUGUGUCACAUGUAAACCA	19.8	52.3
UUGUGUGACAUGUAAACCA	33.9	56.3
UUGUGUUACAUGUAAACCA	25.5	71.9
UUGUUAAACAUGUAAACCA	46.7	83.7
UUGUUACACAUGUAAACCA	55.9	57.1
UUGUUAGACAUGUAAACCA	26.1	60.8
UUGUUAUACAUGUAAACCA	26.6	47.9
UUGUUCAACAUGUAAACCA	51.5	57.9
UUGUUCCACAUGUAAACCA	24.7	10.8
UUGUUCGACAUGUAAACCA	45.1	55.7
UUGUUCUACAUGUAAACCA	23.2	39.4
UUGUUGAACAUGUAAACCA	33.5	54.3
UUGUUGCACAUGUAAACCA	43.7	67.4
UUGUUGGACAUGUAAACCA	27.7	55.6
UUGUUGUACAUGUAAACCA	40	45.7
UUGUUUAACAUGUAAACCA	50.8	92.2
UUGUUUCACAUGUAAACCA	32.9	56.6
UUGUUUGACAUGUAAACCA	14.3	79.5
UUGUUUUACAUGUAAACCA	77	67.9
UUUAAAAACAUGUAAACCA	63.6	82.1
UUUAAACACAUGUAAACCA	58.2	105
UUUAAAGACAUGUAAACCA	59.3	110

Sequence	cell viability (GL261) [%]	cell viability (H4) [%]
UUUAAAUACAUGUAAACCA	75.1	77.4
UUUAACAACAUGUAAACCA	66.2	111
UUUAACCACAUGUAAACCA	34.4	53.2
UUUAACGACAUGUAAACCA	64	112
UUUAACUACAUGUAAACCA	56.6	62.4
UUUAAGAACAUGUAAACCA	54.3	93.8
UUUAAGCACAUGUAAACCA	34.8	63
UUUAAGGACAUGUAAACCA	58.4	71.8
UUUAAGUACAUGUAAACCA	37.3	26.1
UUUAAUAACAUGUAAACCA	75.6	101
UUUAAUCACAUGUAAACCA	57.7	99.3
UUUAAUGACAUGUAAACCA	54.3	97.9
UUUAAUUACAUGUAAACCA	59.7	120
UUUACAAACAUGUAAACCA	52.9	101
UUUACACACAUGUAAACCA	61.2	85.1
UUUACAGACAUGUAAACCA	57.9	105
UUUACAUACAUGUAAACCA	55.4	79.5
UUUACCAACAUGUAAACCA	63.5	106
UUUACCCACAUGUAAACCA	35.7	57.4
UUUACCGACAUGUAAACCA	67.4	79.1
UUUACCUACAUGUAAACCA	27.6	80.5
UUUACGAACAUGUAAACCA	56.7	77.8
UUUACGCACAUGUAAACCA	32.7	86.8
UUUACGGACAUGUAAACCA	46.8	93

Sequence	cell viability (GL261) [%]	cell viability (H4) [%]
UUUACGUACAUGUAAACCA	54.6	79.9
UUUACUAACAUGUAAACCA	63.9	71.2
UUUACUCACAUGUAAACCA	49.3	90.7
UUUACUGACAUGUAAACCA	55	89.5
UUUACUUACAUGUAAACCA	69.2	87.6
UUUAGAAACAUGUAAACCA	64.9	118
UUUAGACACAUGUAAACCA	45.3	68.6
UUUAGAGACAUGUAAACCA	58.2	80.4
UUUAGAUACAUGUAAACCA	65.7	104
UUUAGCAACAUGUAAACCA	49.6	106
UUUAGCCACAUGUAAACCA	28.9	51
UUUAGCGACAUGUAAACCA	62.8	82.1
UUUAGCUACAUGUAAACCA	15.1	78.2
UUUAGGAACAUGUAAACCA	58.5	86.9
UUUAGGCACAUGUAAACCA	13.4	66.3
UUUAGGGACAUGUAAACCA	33.1	68.5
UUUAGGUACAUGUAAACCA	49.9	96.3
UUUAGUAACAUGUAAACCA	67	92
UUUAGUCACAUGUAAACCA	37.6	58.4
UUUAGUGACAUGUAAACCA	74.7	71.6
UUUAGUUACAUGUAAACCA	64.3	105
UUUAUAAACAUGUAAACCA	63.5	109
